# Assay results as given in the supplement of paper PMC8728848.
# The other results are listed elsewhere or left out.
# B1: Gal 9 (Homo sapiens), O00182 (protein)
# chain: MAFSGSQAPYLSPAVPFSGTIQGGLQDGLQITVNGTVLSSSGTRFAVNFQTGFSGNDIAFHFNPRFEDGGYVVCNTRQNGSWGPEERKTHMPFQKGMPFDLCFLVQSSDFKVMVNGILFVQYFHRVPFHRVDTISVNGSVQLSYISFQNPRTVPVQPAFSTVPFSQPVCFPPRPRGRRQKPPGVWPANPAPITQTVIHTVQSAPGQMFSTPAIPPMMYPHPAYPMPFITTILGGLYPSKSILLSGTVLPSAQRFHINLCSGNHIAFHLNPRFDENAVVRNTQIDNSWGSEERSLPRKMPFVRGQSFSVWILCEAHCLKVAVDGQHLFEYYHRLRNLPTINRLEVGGDIQLTHVQT
# Experiments:
# Assay in all cases: glycan array binding signal (z-score within array); higher = stronger binding
# Settings in all cases: glycan notation: IUPAC condensed, linker removed
# [1] = biological target: GlcNAc(b1-2)Man(a1-3)[GlcNAc(b1-4)][GlcNAc(b1-2)Man(a1-6)]Man(b1-4)GlcNAc(b1-4)GlcNAc
# Outline: (§1)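 Arrays were curated from the Consortium for Functional Glycomics database, 3228 in total, and kept only where the protein sequence was available. Binding is expressed as a within-array Z-score. This score was averaged across arrays of the same protein sequence at different concentrations or buffers and across linkers, and negative values can be read as non-binding.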
# [2] = biological target: GlcNAc(b1-2)Man(a1-3)[GlcNAc(b1-4)][GlcNAc(b1-2)Man(a1-6)]Man(b1-4)GlcNAc(b1-4)[Fuc(a1-6)]GlcNAc
# Outline: as §1
# [3] = biological target: GlcNAc(b1-2)[GlcNAc(b1-4)]Man(a1-3)[GlcNAc(b1-2)Man(a1-6)]Man(b1-4)GlcNAc(b1-4)GlcNAc
# Outline: as §1
# [4] = biological target: GlcNAc(b1-2)[GlcNAc(b1-4)]Man(a1-3)[GlcNAc(b1-4)][GlcNAc(b1-2)Man(a1-6)]Man(b1-4)GlcNAc(b1-4)GlcNAc
# Outline: as §1
# [5] = biological target: GlcNAc(b1-2)[GlcNAc(b1-4)]Man(a1-3)[GlcNAc(b1-4)][GlcNAc(b1-2)[GlcNAc(b1-6)]Man(a1-6)]Man(b1-4)GlcNAc(b1-4)GlcNAc
# Outline: as §1
# [6] = biological target: GlcNAc(b1-2)[GlcNAc(b1-4)]Man(a1-3)[GlcNAc(b1-4)][GlcNAc(b1-2)[GlcNAc(b1-6)]Man(a1-6)]Man(b1-4)GlcNAc(b1-4)[Fuc(a1-6)]GlcNAc
# Outline: as §1
# [7] = biological target: GlcNAc(b1-2)[GlcNAc(b1-6)]Man(a1-6)[GlcNAc(b1-2)Man(a1-3)]Man(b1-4)GlcNAc(b1-4)GlcNAc
# Outline: as §1
# [8] = biological target: GlcNAc(b1-2)[GlcNAc(b1-6)]Man(a1-6)[GlcNAc(b1-2)Man(a1-3)]Man(b1-4)GlcNAc(b1-4)[Fuc(a1-6)]GlcNAc
# Outline: as §1
# [9] = biological target: GlcNAc(b1-2)[GlcNAc(b1-6)]Man(a1-6)[GlcNAc(b1-2)Man(a1-3)][GlcNAc(b1-4)]Man(b1-4)GlcNAc(b1-4)GlcNAc
# Outline: as §1
# [10] = biological target: GlcNAc(b1-2)[GlcNAc(b1-6)]Man(a1-6)[GlcNAc(b1-4)][GlcNAc(b1-2)Man(a1-3)]Man(b1-4)GlcNAc(b1-4)GlcNAc
# Outline: as §1
# GlcNAc(b1-3)Fuc = biological target: GlcNAc(b1-3)Fuc
# Outline: as §1
# GlcNAc(b1-3)Gal = biological target: GlcNAc(b1-3)Gal
# Outline: as §1
# [11] = biological target: GlcNAc(b1-3)Gal(b1-3)GalNAc
# Outline: as §1
# GlcNAc(b1-3)Gal(b1-4)Glc = biological target: GlcNAc(b1-3)Gal(b1-4)Glc
# Outline: as §1
# [12] = biological target: GlcNAc(b1-3)Gal(b1-4)GlcNAc
# Outline: as §1
# [13] = biological target: GlcNAc(b1-3)Gal(b1-4)GlcNAc(b1-2)Man(a1-3)[GlcNAc(b1-3)Gal(b1-4)GlcNAc(b1-2)Man(a1-6)]Man(b1-4)GlcNAc(b1-4)GlcNAc
# Outline: as §1
# [14] = biological target: GlcNAc(b1-3)Gal(b1-4)GlcNAc(b1-2)Man(a1-3)[GlcNAc(b1-3)Gal(b1-4)GlcNAc(b1-2)Man(a1-6)]Man(b1-4)GlcNAc(b1-4)[Fuc(a1-6)]GlcNAc
# Outline: as §1
# [15] = biological target: GlcNAc(b1-3)Gal(b1-4)GlcNAc(b1-2)[GlcNAc(b1-3)Gal(b1-4)GlcNAc(b1-6)]Man(a1-6)[GlcNAc(b1-3)Gal(b1-4)GlcNAc(b1-2)Man(a1-3)]Man(b1-4)GlcNAc(b1-4)GlcNAc
# Outline: as §1
# [16] = biological target: GlcNAc(b1-3)Gal(b1-4)GlcNAc(b1-3)Gal(b1-4)GlcNAc
# Outline: as §1
# [17] = biological target: GlcNAc(b1-3)Gal(b1-4)GlcNAc(b1-3)Gal(b1-4)GlcNAc(b1-2)Man(a1-3)[GlcNAc(b1-3)Gal(b1-4)GlcNAc(b1-3)Gal(b1-4)GlcNAc(b1-2)Man(a1-6)]Man(b1-4)GlcNAc(b1-4)GlcNAc
# Outline: as §1
# [18] = biological target: GlcNAc(b1-3)Gal(b1-4)GlcNAc(b1-3)Gal(b1-4)GlcNAc(b1-2)Man(a1-3)[GlcNAc(b1-3)Gal(b1-4)GlcNAc(b1-3)Gal(b1-4)GlcNAc(b1-2)Man(a1-6)]Man(b1-4)GlcNAc(b1-4)[Fuc(a1-6)]GlcNAc
# Outline: as §1
# [19] = biological target: GlcNAc(b1-3)Gal(b1-4)GlcNAc(b1-3)Gal(b1-4)GlcNAc(b1-2)[GlcNAc(b1-3)Gal(b1-4)GlcNAc(b1-3)Gal(b1-4)GlcNAc(b1-6)]Man(a1-6)[GlcNAc(b1-3)Gal(b1-4)GlcNAc(b1-3)Gal(b1-4)GlcNAc(b1-2)Man(a1-3)]Man(b1-4)GlcNAc(b1-4)[Fuc(a1-6)]GlcNAc
# Outline: as §1
# [20] = biological target: GlcNAc(b1-3)Gal(b1-4)GlcNAc(b1-3)Gal(b1-4)GlcNAc(b1-3)Gal(b1-4)GlcNAc(b1-2)Man(a1-3)[GlcNAc(b1-3)Gal(b1-4)GlcNAc(b1-3)Gal(b1-4)GlcNAc(b1-3)Gal(b1-4)GlcNAc(b1-2)Man(a1-6)]Man(b1-4)GlcNAc(b1-4)GlcNAc
# Outline: as §1
# [21] = biological target: GlcNAc(b1-3)Gal(b1-4)GlcNAc(b1-3)Gal(b1-4)GlcNAc(b1-3)Gal(b1-4)GlcNAc(b1-2)Man(a1-3)[GlcNAc(b1-3)Gal(b1-4)GlcNAc(b1-3)Gal(b1-4)GlcNAc(b1-3)Gal(b1-4)GlcNAc(b1-2)Man(a1-6)]Man(b1-4)GlcNAc(b1-4)[Fuc(a1-6)]GlcNAc
# Outline: as §1
# [22] = biological target: GlcNAc(b1-3)Gal(b1-4)GlcNAc(b1-3)Gal(b1-4)GlcNAc(b1-3)Gal(b1-4)GlcNAc(b1-2)[GlcNAc(b1-3)Gal(b1-4)GlcNAc(b1-3)Gal(b1-4)GlcNAc(b1-3)Gal(b1-4)GlcNAc(b1-6)]Man(a1-6)[GlcNAc(b1-3)Gal(b1-4)GlcNAc(b1-3)Gal(b1-4)GlcNAc(b1-3)Gal(b1-4)GlcNAc(b1-2)Man(a1-3)]Man(b1-4)GlcNAc(b1-4)[Fuc(a1-6)]GlcNAc
# Outline: as §1
# [23] = biological target: GlcNAc(b1-3)Gal(b1-4)GlcNAc(b1-3)Gal(b1-4)GlcNAc(b1-3)Gal(b1-4)GlcNAc(b1-3)Gal(b1-4)GlcNAc(b1-2)Man(a1-3)[GlcNAc(b1-3)Gal(b1-4)GlcNAc(b1-3)Gal(b1-4)GlcNAc(b1-3)Gal(b1-4)GlcNAc(b1-3)Gal(b1-4)GlcNAc(b1-2)Man(a1-6)]Man(b1-4)GlcNAc(b1-4)GlcNAc
# Outline: as §1
# [24] = biological target: GlcNAc(b1-3)Gal(b1-4)GlcNAc(b1-3)Gal(b1-4)GlcNAc(b1-3)Gal(b1-4)GlcNAc(b1-3)Gal(b1-4)GlcNAc(b1-2)Man(a1-3)[GlcNAc(b1-3)Gal(b1-4)GlcNAc(b1-3)Gal(b1-4)GlcNAc(b1-3)Gal(b1-4)GlcNAc(b1-3)Gal(b1-4)GlcNAc(b1-2)Man(a1-6)]Man(b1-4)GlcNAc(b1-4)[Fuc(a1-6)]GlcNAc
# Outline: as §1
# [25] = biological target: GlcNAc(b1-3)Gal(b1-4)GlcNAc(b1-3)Gal(b1-4)GlcNAc(b1-3)Gal(b1-4)GlcNAc(b1-3)Gal(b1-4)GlcNAc(b1-2)[GlcNAc(b1-3)Gal(b1-4)GlcNAc(b1-3)Gal(b1-4)GlcNAc(b1-3)Gal(b1-4)GlcNAc(b1-3)Gal(b1-4)GlcNAc(b1-6)]Man(a1-6)[GlcNAc(b1-3)Gal(b1-4)GlcNAc(b1-3)Gal(b1-4)GlcNAc(b1-3)Gal(b1-4)GlcNAc(b1-3)Gal(b1-4)GlcNAc(b1-2)Man(a1-3)]Man(b1-4)GlcNAc(b1-4)[Fuc(a1-6)]GlcNAc
# Outline: as §1
# [26] = biological target: GlcNAc(b1-3)Gal(b1-4)GlcNAc(b1-3)Gal(b1-4)GlcNAc(b1-3)GalNAc
# Outline: as §1
# [27] = biological target: GlcNAc(b1-3)Gal(b1-4)GlcNAc(b1-3)GalNAc
# Outline: as §1
# [28] = biological target: GlcNAc(b1-3)Gal(b1-4)GlcNAc(b1-3)[GlcNAc(b1-3)Gal(b1-4)GlcNAc(b1-3)]GalNAc
# Outline: as §1
# [29] = biological target: GlcNAc(b1-3)Gal(b1-4)GlcNAc(b1-6)[Gal(b1-3)]GalNAc
# Outline: as §1
# [30] = biological target: GlcNAc(b1-3)Gal(b1-4)GlcNAc(b1-6)[GlcNAc(b1-3)Gal(b1-3)]GalNAc
# Outline: as §1
# [31] = biological target: GlcNAc(b1-3)Gal(b1-4)GlcNAc(b1-6)[GlcNAc(b1-3)]Gal(b1-4)GlcNAc
# Outline: as §1
# GlcNAc(b1-3)GalNAc = biological target: GlcNAc(b1-3)GalNAc
# Outline: as §1
# GlcNAc(b1-3)Man = biological target: GlcNAc(b1-3)Man
# Outline: as §1
# [32] = biological target: GlcNAc(b1-3)[GlcNAc(b1-4)][GlcNAc(b1-6)]GlcNAc
# Outline: as §1
binder,measurement,setting,value
B1,glycan array binding signal (z-score),[1],-0.318
same,glycan array binding signal (z-score),[2],-0.293
same,glycan array binding signal (z-score),[3],-0.323
same,glycan array binding signal (z-score),[4],-0.314
same,glycan array binding signal (z-score),[5],-0.32
same,glycan array binding signal (z-score),[6],-0.267
same,glycan array binding signal (z-score),[7],-0.324
same,glycan array binding signal (z-score),[8],-0.277
same,glycan array binding signal (z-score),[9],-0.329
same,glycan array binding signal (z-score),[10],-0.268
same,glycan array binding signal (z-score),GlcNAc(b1-3)Fuc,-0.282
same,glycan array binding signal (z-score),GlcNAc(b1-3)Gal,-0.323
same,glycan array binding signal (z-score),[11],-0.271
same,glycan array binding signal (z-score),GlcNAc(b1-3)Gal(b1-4)Glc,0.028
same,glycan array binding signal (z-score),[12],-0.313
same,glycan array binding signal (z-score),[13],-0.006
same,glycan array binding signal (z-score),[14],-0.004
same,glycan array binding signal (z-score),[15],0.976
same,glycan array binding signal (z-score),[16],0.337
same,glycan array binding signal (z-score),[17],0.688
same,glycan array binding signal (z-score),[18],0.183
same,glycan array binding signal (z-score),[19],2.6
same,glycan array binding signal (z-score),[20],0.663
same,glycan array binding signal (z-score),[21],0.052
same,glycan array binding signal (z-score),[22],1.9
same,glycan array binding signal (z-score),[23],2.25
same,glycan array binding signal (z-score),[24],1.89
same,glycan array binding signal (z-score),[25],2.32
same,glycan array binding signal (z-score),[26],-0.205
same,glycan array binding signal (z-score),[27],-0.286
same,glycan array binding signal (z-score),[28],-0.273
same,glycan array binding signal (z-score),[29],-0.248
same,glycan array binding signal (z-score),[30],-0.283
same,glycan array binding signal (z-score),[31],-0.118
same,glycan array binding signal (z-score),GlcNAc(b1-3)GalNAc,-0.316
same,glycan array binding signal (z-score),GlcNAc(b1-3)Man,-0.329
same,glycan array binding signal (z-score),[32],-0.318
